# The whole screen tested about 310,000 compounds, of which about 18,000 (5.8%) were called active. The inconclusive results got no clear call from the source; some entries with a clear call stand among them for comparison. Calls come from the whole dose curve; as a rule, active = well fitted inhibition curve with a large enough effect; inconclusive = small, poorly fitted or top-dose-only effect, or another doubt; inactive = no such curve, though single readings can be large or run the other way. No potency is given beside an inconclusive call; the fits are too rough.
# Experiment: Primary qHTS for delayed death inhibitors of the malarial parasite plastid, 48 hour incubation
# Conditions: P. falciparum luciferase growth in erythrocytes; series mostly up to 28.7 µM
# Method in brief: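 Compounds are pin-transferred into medium, infected erythrocytes (2% hematocrit, 0.1% parasitemia final) are added, and plates sit one parasite generation at 37 C in 5% CO2. Detection reagent is then added and luminescence measured.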
# Potency is the fitted concentration of half-maximal effect; tags give direction and shape of the fitted curve.
row,SMILES,Potency
1,COc1ccc(C(=O)Nc2ccccc2C(=O)O)cc1Cl,inactive
2,Cc1cc(C)c2c(NC(=S)NC(=O)c3ccccc3)n[nH]c2n1,inactive
3,CC(CC(=O)OCC(=O)NCc1ccc(Cl)cc1)c1ccccc1 (stereo not given),"inconclusive [inhibitor, single point]"
4,O=C(NCC(c1ccco1)N1CCCC1)c1ccc(Cl)c(S(=O)(=O)N2CCc3ccccc32)c1 (stereo not given),active: 5.86 µM
5,COc1ccc(S(=O)(=O)Nc2cc3c4c(c2)CCN4C(=O)CC3)cc1OC,inactive
6,O=C(Nc1ccc2nn(-c3ccccc3)nc2c1)c1cccnc1,inactive
7,COCCCN(C(=O)Cc1coc2cc(C)c(C)cc12)c1c(N)n(Cc2ccccc2)c(=O)[nH]c1=O,"inconclusive [inhibitor, partial curve]"
8,O=C(CSc1cn(CCNC(=O)c2cccs2)c2ccccc12)NCc1ccccc1,"inconclusive [inhibitor, partial curve]"
9,CCOc1ccc(NC(=O)CN(C)C(=O)c2ccccc2Cc2ccccc2)cc1OCC,active: 11.7 µM
10,Cc1cc(C)cc(NC(=O)c2ccc(NC(=O)c3ccco3)cc2)c1,"inconclusive [inhibitor, single point]"
11,Cc1cc(-c2ccco2)n2c(nc3ccccc32)c1C#N,active: 11.7 µM
12,CN(CC(=O)Nc1ccc2c(c1)OCCO2)S(=O)(=O)c1ccc(F)cc1,inactive
13,COc1cc2nc(SCC(=O)NCc3ccco3)n(Cc3ccc(Cl)cc3)c(=O)c2cc1OC,"inconclusive [inhibitor, partial curve, poor fit]"
14,CCOc1ccc(CNS(=O)(=O)c2c(C)nc3sccn3c2=O)cc1OC,inactive
15,CCCc1ccc2oc(C(=O)N(Cc3nccn3C)C(C)C)c(C)c2c1,"inconclusive [inhibitor, single point]"
16,COc1ccc(CN2CCC(n3nccc3NC(=O)c3cccc(F)c3)CC2)cc1O,"inconclusive [inhibitor, single point]"
17,Cc1cccn2c(=O)c3cc(C(=O)NC(C)c4ccccc4)c(=N)n(CCCn4ccnc4)c3nc12 (stereo not given),active: 0.415 µM
18,CC(OC(=O)CSc1ccc([N+](=O)[O-])cc1)C(=O)NCc1ccco1 (stereo not given),"inconclusive [inhibitor, single point]"
19,COc1ccc(C(=O)N(C)C2CCCN(Cc3ccccc3F)C2)cc1C (stereo not given),"inconclusive [inhibitor, partial curve, poor fit]"
20,COc1cccc(CC2(CO)CCCN(Cc3cnn(-c4ccccc4)c3)C2)c1 (stereo not given),"inconclusive [inhibitor, partial curve]"
21,COc1ccc(N(CC(=O)Nc2ccccc2OC)S(=O)(=O)c2ccc(NC(C)=O)cc2)cc1,"inconclusive [inhibitor, partial curve]"
22,CCC(=O)c1ccc(OCC(=O)OC(C)C(=O)NCc2ccc3c(c2)OCO3)cc1 (stereo not given),"inconclusive [inhibitor, partial curve, poor fit]"
23,CCOC(=O)c1c(NC(=O)c2ccccc2)sc2c(O)c(CN(CC)CC)ccc12,active: 1.85 µM
24,O=C1NC(=NCc2ccccc2)S/C1=C/c1ccc(O)cc1,"inconclusive [inhibitor, single point]"

row,SMILES,Potency
1,CCCCN(CC)C(=O)c1oc2ccc(S(=O)(=O)N3CCCC3)cc2c1C,"inconclusive [inhibitor, partial curve]"
2,CCn1c2ccccc2c2cc(NC(=O)CSc3nnc(-c4ccc(OC)c(OC)c4)n3N)ccc21,"inconclusive [inhibitor, single point]"
3,CCN(CC)S(=O)(=O)c1ccc(N2CCCC2)c(NC(=O)CC(C)(C)C)c1,"inconclusive [inhibitor, single point]"
4,COc1ccc(CC(=O)OCc2nnc(-c3ccccc3)o2)cc1,"inconclusive [inhibitor, single point]"
5,CCCCn1c(SCc2ccc(Cl)cc2)nc2c1c(=O)[nH]c(=O)n2C,active: 6.57 µM
6,O=C(Nc1ccc(Cc2ccncc2)cc1)c1ccc(S(=O)(=O)N2CCOCC2)cc1,"inconclusive [inhibitor, partial curve]"
7,CCOC(=O)c1ccccc1NC(=O)CN(c1ccccc1OCC)S(C)(=O)=O,active: 9.28 µM
8,CCN(C(=O)COC(=O)c1cc(S(=O)(=O)N(C)C)ccc1Cl)C1CCS(=O)(=O)C1 (stereo not given),inactive
9,S=C(Nc1ccc(Br)cc1)NC1CCN(Cc2ccccc2)CC1,active: 11.7 µM
10,O=C(CNC(=O)c1ccccc1F)NCCc1ccc(Cl)cc1Cl,inactive
11,CC1CCCCN1CCCNc1ccc(C(CC(N)=O)NC(=O)Cc2ccc(Cl)cc2)cc1[N+](=O)[O-] (stereo not given),inactive
12,COc1ccc(C=O)c2[nH]c3c(Cl)ncnc3c12,"inconclusive [inhibitor, single point]"
13,O=C(Nc1nc(-c2ccccc2)c(-c2ccccc2)o1)c1ccc(F)cc1,"inconclusive [inhibitor, single point]"
14,CC(C)(C)c1ccc(C(=O)c2c[nH]c(C(=O)NCCCn3ccnc3)c2)cc1,active: 11.7 µM
15,CN(O)/C=C1\C(=O)Nc2ccccc21,"inconclusive [inhibitor, partial curve, poor fit]"
16,Cc1cccc(NC(=O)CCC(=O)N/N=C/c2ccc(O)cc2O)c1,"inconclusive [inhibitor, single point]"
17,CSCCC(NC(=O)c1ccccc1Br)C(=O)NCc1ccc(F)cc1 (stereo not given),inactive
18,O=C(CCC(=O)N/N=C/c1ccccc1O)NCc1ccccc1,inactive
19,COc1c(C)cc(S(=O)(=O)NCc2ccco2)c(C)c1C,"inconclusive [inhibitor, partial curve, poor fit]"
20,O=[N+]([O-])c1cc([N+](=O)[O-])c2n[nH]c(-c3ccccc3)c2c1,"inconclusive [inhibitor, single point]"
21,COc1ccc(CNC(=O)CSc2nnc(C3CC3)n2C2CC2)cc1,"inconclusive [inhibitor, single point]"
22,O=C(O)c1ccc2c(c1)SC1=NS(=O)(=O)CCN12,inactive
23,Cc1ccc(OCCNC(=O)CCNS(=O)(=O)c2ccc(Br)cc2)cc1,"inconclusive [inhibitor, single point]"
24,C/C(=N\N1CCCCCC1)c1c(O)n(-c2ccccc2C)c(=O)[nH]c1=O,"inconclusive [inhibitor, single point]"

row,SMILES,Potency
1,Cc1cc(NC(=O)CCSc2nc(-c3ccco3)cc(C(F)(F)F)n2)n(-c2ccccc2)n1,active: 11.7 µM
2,Cc1ccc(N2CC(NC(=O)C(=O)c3c(C)[nH]c4ccccc34)CC2=O)cc1C (stereo not given),"inconclusive [inhibitor, single point]"
3,Cc1ccc(NC(=O)NNC(=O)c2cc3ccccc3cc2O)cc1C,inactive
4,CCOC(=O)c1c(NC(=O)CN2CCN(C)CC2)sc(C(=O)Nc2ccccc2)c1C,active: 13.1 µM
5,COc1cccc(-c2nc(NCc3ccco3)c3ccccc3n2)c1O,"inconclusive [inhibitor, single point]"
6,CCC(CC)NC(=O)CN1CCN(S(=O)(=O)c2cccs2)CC1,inactive
7,CC(=O)c1cccc(OCC(=O)c2cc(C)n(-c3cc(C)on3)c2C)c1,"inconclusive [inhibitor, single point]"
8,COc1cccc(CNC(=O)C2CCN(S(=O)(=O)c3ccc4c(c3)NC(=O)C(C)S4)CC2)c1 (stereo not given),"inconclusive [inhibitor, single point]"
9,COc1ccc(OC)c(/C=N/NC(=O)Cc2nc3ccccc3[nH]2)c1,inactive
10,O=C(N/C(=C\c1ccccc1)C(=O)N1CCCCC1)c1ccco1,inactive
11,Cc1cc(C)n(S(=O)(=O)c2cc(Cl)ccc2Cl)n1,active: 10.4 µM
12,Cc1ccc(NC(=O)N2CCCN(Cc3ccc(F)cc3)C2)cc1C,active: 13.1 µM
13,O=C(COC(=O)c1ccccc1-c1ccccc1[N+](=O)[O-])c1ccccc1,"inconclusive [inhibitor, single point]"
14,Cc1cc(NC(=O)c2ccc(S(=O)(=O)N(C)CC3CCCO3)cc2)no1 (stereo not given),"inconclusive [inhibitor, partial curve, poor fit]"
15,CC(Sc1nc2ccccc2c(=O)n1CC1CCCO1)C(=O)N(C)Cc1ccccc1 (stereo not given),"inconclusive [inhibitor, single point]"
16,O=C(Cc1ccc(Cl)cc1)N/N=C/c1cccs1,inactive
17,C=CCc1c(C)nc2c(C)cccc2c1SC(=N)N,"inconclusive [inhibitor, partial curve, poor fit]"
18,CC(=O)c1ccc(N2CCN(C(=O)C3CCCN(S(=O)(=O)c4cnc[nH]4)C3)CC2)cc1 (stereo not given),"inconclusive [inhibitor, partial curve, poor fit]"
19,COc1ccc(N2CCN(C(=O)c3oc4ccccc4c3NC(=O)Cc3ccc(OC)c(OC)c3)CC2)cc1,"inconclusive [inhibitor, partial curve]"
20,OCCC1CN(Cc2ccc3cc(Cl)ccc3n2)CCN1Cc1ccsc1 (stereo not given),"inconclusive [inhibitor, single point]"
21,CC1(C)CC(=O)C2=C(C1)Nc1cc3c(cc1C2c1ccc(F)cc1)OCO3 (stereo not given),"inconclusive [inhibitor, partial curve, poor fit]"
22,COc1ccc(NC(=O)CN(C)C(=O)c2sc3cc(Cl)ccc3c2Cl)cc1,"inconclusive [inhibitor, single point]"
